The list shows a part of the results.
Assays:
Experiment in all cases: glycan array binding signal (z-score within array); higher = stronger binding
Details in all cases: glycan notation: IUPAC condensed, linker removed
[1] = target: Neu5Ac(a2-3)Gal(b1-3)[Neu5Ac(a2-6)]GalNAc
Procedure, shortened: (§1)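 Arrays were curated from the Consortium for Functional Glycomics database, 3228 in total, and kept only where the protein sequence was available. Binding is expressed as a within-array Z-score. This score was averaged across arrays of the same protein sequence at different concentrations or buffers and across linkers, and negative values can be read as non-binding.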

[2] = target: Neu5Ac(a2-3)Gal(b1-4)Glc
Procedure, shortened: as §1

[3] = target: Neu5Ac(a2-3)Gal(b1-4)GlcNAc
Procedure, shortened: as §1

[4] = target: Neu5Ac(a2-3)Gal(b1-4)GlcNAc(b1-3)Gal(b1-4)GlcNAc
Procedure, shortened: as §1

[5] = target: Neu5Ac(a2-3)Gal(b1-4)GlcNAc(b1-3)Gal(b1-4)GlcNAc(b1-3)Gal(b1-4)GlcNAc
Procedure, shortened: as §1

[6] = target: Neu5Ac(a2-3)Gal(b1-4)GlcNAc(b1-3)Gal(b1-4)[Fuc(a1-3)]GlcNAc
Procedure, shortened: as §1

[7] = target: Neu5Ac(a2-3)Gal(b1-4)GlcNAc6S
Procedure, shortened: as §1

[8] = target: Neu5Ac(a2-3)Gal(b1-4)[Fuc(a1-3)]GlcNAc
Procedure, shortened: as §1

[9] = target: Neu5Ac(a2-3)Gal(b1-4)[Fuc(a1-3)]GlcNAc(b1-3)Gal
Procedure, shortened: as §1

[10] = target: Neu5Ac(a2-3)Gal(b1-4)[Fuc(a1-3)]GlcNAc(b1-3)Gal(b1-4)GlcNAc
Procedure, shortened: as §1

[11] = target: Neu5Ac(a2-3)Gal(b1-4)[Fuc(a1-3)]GlcNAc(b1-3)Gal(b1-4)[Fuc(a1-3)]GlcNAc(b1-3)Gal(b1-4)[Fuc(a1-3)]GlcNAc
Procedure, shortened: as §1

[12] = target: Neu5Ac(a2-3)Gal(b1-4)[Fuc(a1-3)]GlcNAc6S
Procedure, shortened: as §1

[13] = target: Neu5Ac(a2-3)Gal6S(b1-4)GlcNAc
Procedure, shortened: as §1

[14] = target: Neu5Ac(a2-3)Gal6S(b1-4)[Fuc(a1-3)]GlcNAc
Procedure, shortened: as §1

[15] = target: Neu5Ac(a2-3)GalNAc
Procedure, shortened: as §1

[16] = target: Neu5Ac(a2-3)GalNAc(b1-4)GlcNAc
Procedure, shortened: as §1

[17] = target: Neu5Ac(a2-3)[GalNAc(b1-4)]Gal(b1-4)Glc
Procedure, shortened: as §1

[18] = target: Neu5Ac(a2-3)[GalNAc(b1-4)]Gal(b1-4)GlcNAc
Procedure, shortened: as §1

[19] = target: Neu5Ac(a2-3)[Neu5Ac(a2-6)]GalNAc
Procedure, shortened: as §1

[20] = target: Neu5Ac(a2-6)Gal
Procedure, shortened: as §1

[21] = target: Neu5Ac(a2-6)Gal(b1-4)Glc
Procedure, shortened: as §1

[22] = target: Neu5Ac(a2-6)Gal(b1-4)GlcNAc
Procedure, shortened: as §1

[23] = target: Neu5Ac(a2-6)Gal(b1-4)GlcNAc(b1-2)Man(a1-3)[Neu5Ac(a2-6)Gal(b1-4)GlcNAc(b1-2)Man(a1-6)]Man(b1-4)GlcNAc(b1-4)GlcNAc
Procedure, shortened: as §1

[24] = target: Neu5Ac(a2-6)Gal(b1-4)GlcNAc(b1-3)Gal(b1-4)GlcNAc
Procedure, shortened: as §1

[25] = target: Neu5Ac(a2-6)Gal(b1-4)GlcNAc(b1-3)Gal(b1-4)[Fuc(a1-3)]GlcNAc(b1-3)Gal(b1-4)[Fuc(a1-3)]GlcNAc
Procedure, shortened: as §1

[26] = target: Neu5Ac(a2-6)Gal(b1-4)GlcNAc6S
Procedure, shortened: as §1

[27] = target: Neu5Ac(a2-6)GalNAc
Procedure, shortened: as §1

[28] = target: Neu5Ac(a2-6)GalNAc(b1-4)GlcNAc
Procedure, shortened: as §1

[29] = target: Neu5Ac(a2-8)Neu5Ac
Procedure, shortened: as §1

[30] = target: Neu5Ac(a2-8)Neu5Ac(a2-3)Gal(b1-4)Glc
Procedure, shortened: as §1

[31] = target: Neu5Ac(a2-8)Neu5Ac(a2-3)[GalNAc(b1-4)]Gal(b1-4)Glc
Procedure, shortened: as §1

[32] = target: Neu5Ac(a2-8)Neu5Ac(a2-8)Neu5Ac
Procedure, shortened: as §1

[33] = target: Neu5Ac(a2-8)Neu5Ac(a2-8)Neu5Ac(a2-3)Gal(b1-4)Glc
Procedure, shortened: as §1

[34] = target: Neu5Ac(a2-8)Neu5Ac(a2-8)Neu5Ac(a2-3)[GalNAc(b1-4)]Gal(b1-4)Glc
Procedure, shortened: as §1

[35] = target: Neu5Ac(a2-8)Neu5Ac(a2-8)Neu5Ac(a2-8)Neu5Ac(a2-3)[GalNAc(b1-4)]Gal(b1-4)Glc
Procedure, shortened: as §1

[36] = target: Neu5Ac(b1-6)GalNAc
Procedure, shortened: as §1

[37] = target: Neu5Ac(b2-6)Gal(b1-4)GlcNAc
Procedure, shortened: as §1

[38] = target: Neu5Ac9Ac(a2-6)Gal(b1-4)GlcNAc
Procedure, shortened: as §1

[39] = target: Neu5Gc(a2-3)Gal(b1-3)GlcNAc
Procedure, shortened: as §1

[40] = target: Neu5Gc(a2-3)Gal(b1-3)[Fuc(a1-4)]GlcNAc
Procedure, shortened: as §1

[41] = target: Neu5Gc(a2-3)Gal(b1-4)Glc
Procedure, shortened: as §1

[42] = target: Neu5Gc(a2-3)Gal(b1-4)GlcNAc
Procedure, shortened: as §1

[43] = target: Neu5Gc(a2-3)Gal(b1-4)[Fuc(a1-3)]GlcNAc
Procedure, shortened: as §1

[44] = target: Neu5Gc(a2-6)Gal(b1-4)GlcNAc
Procedure, shortened: as §1

[45] = target: Neu5Gc(a2-6)GalNAc
Procedure, shortened: as §1

B1: DEC205 (Homo sapiens), O60449 (protein)
chain: MRTGWATPRRPAGLLMLLFWFFDLAEPSGRAANDPFTIVHGNTGKCIKPVYGWIVADDCDETEDKLWKWVSQHRLFHLHSQKCLGLDITKSVNELRMFSCDSSAMLWWKCEHHSLYGAARYRLALKDGHGTAISNASDVWKKGGSEESLCDQPYHEIYTRDGNSYGRPCEFPFLIDGTWHHDCILDEDHSGPWCATTLNYEYDRKWGICLKPENGCEDNWEKNEQFGSCYQFNTQTALSWKEAYVSCQNQGADLLSINSAAELTYLKEKEGIAKIFWIGLNQLYSARGWEWSDHKPLNFLNWDPDRPSAPTIGGSSCARMDAESGLWQSFSCEAQLPYVCRKPLNNTVELTDVWTYSDTRCDAGWLPNNGFCYLLVNESNSWDKAHAKCKAFSSDLISIHSLADVEVVVTKLHNEDIKEEVWIGLKNINIPTLFQWSDGTEVTLTYWDENEPNVPYNKTPNCVSYLGELGQWKVQSCEEKLKYVCKRKGEKLNDASSDKMCPPDEGWKRHGETCYKIYEDEVPFGTNCNLTITSRFEQEYLNDLMKKYDKSLRKYFWTGLRDVDSCGEYNWATVGGRRRAVTFSNWNFLEPASPGGCVAMSTGKSVGKWEVKDCRSFKALSICKKMSGPLGPEEASPKPDDPCPEGWQSFPASLSCYKVFHAERIVRKRNWEEAERFCQALGAHLSSFSHVDEIKEFLHFLTDQFSGQHWLWIGLNKRSPDLQGSWQWSDRTPVSTIIMPNEFQQDYDIRDCAAVKVFHRPWRRGWHFYDDREFIYLRPFACDTKLEWVCQIPKGRTPKTPDWYNPDRAGIHGPPLIIEGSEYWFVADLHLNYEEAVLYCASNHSFLATITSFVGLKAIKNKIANISGDGQKWWIRISEWPIDDHFTYSRYPWHRFPVTFGEECLYMSAKTWLIDLGKPTDCSTKLPFICEKYNVSSLEKYSPDSAAKVQCSEQWIPFQNKCFLKIKPVSLTFSQASDTCHSYGGTLPSVLSQIEQDFITSLLPDMEATLWIGLRWTAYEKINKWTDNRELTYSNFHPLLVSGRLRIPENFFEEESRYHCALILNLQKSPFTGTWNFTSCSERHFVSLCQKYSEVKSRQTLQNASETVKYLNNLYKIIPKTLTWHSAKRECLKSNMQLVSITDPYQQAFLSVQALLHNSSLWIGLFSQDDELNFGWSDGKRLHFSRWAETNGQLEDCVVLDTDGFWKTVDCNDNQPGAICYYSGNETEKEVKPVDSVKCPSPVLNTPWIPFQNCCYNFIITKNRHMATTQDEVHTKCQKLNPKSHILSIRDEKENNFVLEQLLYFNYMASWVMLGITYRNNSLMWFDKTPLSYTHWRAGRPTIKNEKFLAGLSTDGFWDIQTFKVIEEAVYFHQHSILACKIEMVDYKEEHNTTLPQFMPYEDGIYSVIQKKVTWYEALNMCSQSGGHLASVHNQNGQLFLEDIVKRDGFPLWVGLSSHDGSESSFEWSDGSTFDYIPWKGQTSPGNCVLLDPKGTWKHEKCNSVKDGAICYKPTKSKKLSRLTYSSRCPAAKENGSRWIQYKGHCYKSDQALHSFSEAKKLCSKHDHSATIVSIKDEDENKFVSRLMRENNNITMRVWLGLSQHSVDQSWSWLDGSEVTFVKWENKSKSGVGRCSMLIASNETWKKVECEHGFGRVVCKVPLGPDYTAIAIIVATLSILVLMGGLIWFLFQRHRLHLAGFSSVRYAQGVNEDEIMLPSFHD
glycan array binding signal (z-score) [1]: -0.263
glycan array binding signal (z-score) [2]: 0.09
glycan array binding signal (z-score) [3]: -0.207
glycan array binding signal (z-score) [4]: -0.332
glycan array binding signal (z-score) [5]: 0.774
glycan array binding signal (z-score) [6]: -0.041
glycan array binding signal (z-score) [7]: -0.318
glycan array binding signal (z-score) [8]: -0.189
glycan array binding signal (z-score) [9]: -0.262
glycan array binding signal (z-score) [10]: -0.319
glycan array binding signal (z-score) [11]: -0.185
glycan array binding signal (z-score) [12]: -0.001
glycan array binding signal (z-score) [13]: -0.126
glycan array binding signal (z-score) [14]: -0.219
glycan array binding signal (z-score) [15]: 0.006
glycan array binding signal (z-score) [16]: -0.215
glycan array binding signal (z-score) [17]: -0.279
glycan array binding signal (z-score) [18]: -0.127
glycan array binding signal (z-score) [19]: -0.377
glycan array binding signal (z-score) [20]: -0.364
glycan array binding signal (z-score) [21]: -0.103
glycan array binding signal (z-score) [22]: -0.196
glycan array binding signal (z-score) [23]: -0.15
glycan array binding signal (z-score) [24]: -0.31
glycan array binding signal (z-score) [25]: 0.015
glycan array binding signal (z-score) [26]: -0.198
glycan array binding signal (z-score) [27]: -0.277
glycan array binding signal (z-score) [28]: -0.115
glycan array binding signal (z-score) [29]: -0.29
glycan array binding signal (z-score) [30]: -0.285
glycan array binding signal (z-score) [31]: 0.013
glycan array binding signal (z-score) [32]: -0.206
glycan array binding signal (z-score) [33]: -0.236
glycan array binding signal (z-score) [34]: -0.243
glycan array binding signal (z-score) [35]: -0.012
glycan array binding signal (z-score) [36]: -0.143
glycan array binding signal (z-score) [37]: -0.124
glycan array binding signal (z-score) [38]: -0.09
glycan array binding signal (z-score) [39]: -0.411
glycan array binding signal (z-score) [40]: -0.26
glycan array binding signal (z-score) [41]: -0.194
glycan array binding signal (z-score) [42]: -0.169
glycan array binding signal (z-score) [43]: -0.073
glycan array binding signal (z-score) [44]: -0.229
glycan array binding signal (z-score) [45]: -0.281

Source: the supplement of paper PMC8728848
